Measurements as given in PubChem BioAssay AID624296 (National Center for Advancing Translational Sciences (NCATS), 2012).
The whole screen tested about 350,000 compounds, of which about 9,900 (2.8%) were called active. Inconclusive results, whose numbers are uncertain, are shown with a selection of clear calls. Calls come from the whole dose curve; as a rule, active = well fitted activation curve with a large enough effect; inconclusive = small, poorly fitted or top-dose-only effect; inactive = no such curve, though single readings can be large or run the other way. Potencies of inconclusive entries are left out as doubtful fits.

Test: A quantitative high throughput screen for small molecules that induce DNA re-replication in MCF 10a normal breast cells. Note: nearly all actives have a fitted effect of over 50% in size.
Details: MCF 10A DNA re-replication, Hoechst nuclear intensity, 48 h; series mostly up to 46.1 µM
Potency is the fitted concentration of half-maximal effect; tags give direction and shape of the fitted curve.

Row | SMILES | Potency
1 | Cc1ccc(-c2n[nH]c(=S)n2/N=C/c2ccc(C)s2)cc1 | inconclusive [activator, single point]
2 | O=C(c1ccc(-c2ccc([N+](=O)[O-])cc2)o1)N1CCCC(C(F)(F)F)C1 (stereo not drawn) | inactive
3 | CCN(CC(=O)Nc1ccccc1OC)C(=O)c1cc(-c2ccccc2)nn1-c1ccccc1 | inconclusive [activator, single point]
4 | Cc1ccc(CNC(=O)c2cc(Cl)cc(Cl)c2)n1C | inactive
5 | CCOC(=O)c1cn(CC)c2cc(N3CCOCC3)c(F)cc2c1=O | inactive
6 | COc1ccccc1NC(=O)N1CCC(C(=O)c2ccc(Cl)cc2)CC1 | inconclusive [activator, single point]
7 | C=C(C(=O)c1ccccc1)C(C)CC(=O)c1ccccc1 (stereo not drawn) | inconclusive [activator, partial curve, poor fit]
8 | Cc1c(Cl)cccc1NC(=O)CSc1nc2c(c(=O)[nH]1)CCCC2 | inconclusive [activator, partial curve, poor fit]
9 | COc1ccc(CNC(=O)[C@]2(C)CCC[C@@]3(C)C4CC[C@@]5(C)C[C@]4(CCC32)CC5=O)cc1 (stereo partly drawn) | inconclusive [activator, single point]
10 | CCc1c(C)nc2cc(-c3cc(OC)cc(OC)c3)nn2c1N1CCCC1 | inactive
11 | Cc1nn(CC(=O)OCC(=O)c2ccc(OC(F)F)cc2)c(C)c1[N+](=O)[O-] | inactive
12 | COc1ccc(N2CCN(c3ncnc4sc(C(=O)NCC5CCCO5)c(C)c34)CC2)cc1 (stereo not drawn) | inconclusive [activator, partial curve, poor fit]
13 | O=C(CSc1nc2ncc(Cl)cc2[nH]1)Nc1ccccc1-c1ccccc1 | inconclusive [activator, partial curve, poor fit]
14 | Cc1nc(Nc2nc3c(c(=O)[nH]2)CCC3)nc2ccccc12 | inconclusive [activator, single point]
15 | COc1ccccc1CNC(=O)c1cc(-c2ccccc2)nn1Cc1cc(C)no1 | inconclusive [activator, full curve, poor fit]
16 | CCOc1ccc(Nc2nc(N)c3ccccc3n2)cc1 | inconclusive [activator, single point]
17 | O=c1c(Cl)c(Cl)cnn1Cc1ccc(F)cc1 | active: 3.66 µM
18 | CCOc1ccc(N2C(=O)C3Sc4[nH]c(=O)sc4C(/C=C/c4ccccc4)C3C2=O)cc1 (stereo not drawn) | inconclusive [activator, partial curve, poor fit]
19 | CCCCSc1nnc(-c2ccccc2)c2ccccc12 | inconclusive [activator, single point]
20 | Cc1ccc(Cl)cc1NC(=O)CNC(=O)N1CC(=O)Nc2ccccc21 | inactive
21 | COc1ccc(N2C(=O)CC(Sc3nnc(-c4ccccc4)o3)C2=O)cc1 (stereo not drawn) | inconclusive [activator, single point]
22 | O=C(c1ccc(Cn2cc(Br)cn2)cc1)N1CCN(c2ccccc2)CC1 | active: 20.6 µM

Row | SMILES | Potency
23 | O=C1OCCN1C(=O)[C@H]1[C@H](c2ccc(F)cc2)C(c2ccc(F)cc2)=NN1c1ccc(Br)cc1 | inconclusive [activator, partial curve, poor fit]
24 | Nc1ncnc2c(C3OC(CO)C(O)C3O)c[nH]c12 (stereo not drawn) | inconclusive [activator, partial curve, poor fit]
25 | COc1ccc(S(=O)(=O)N2CCCCCC2)cc1C(=O)N(C)Cc1cccs1 | inconclusive [activator, single point]
26 | CCOc1cc(/C=N/N=C2/NC(=O)C(CC(=O)O)S2)ccc1OCc1ccc(Cl)cc1Cl (stereo not drawn) | inconclusive [activator, single point]
27 | O=C(O/N=C\c1ccc(N2CCOCC2)c([N+](=O)[O-])c1)c1ccc(F)cc1 | inactive
28 | C/C=C\C=C\C(=O)N1CC2(CC(c3cccc(NC(=O)CC(c4ccccc4)c4ccccc4)c3)=NO2)C[C@H]1C(N)=O (stereo partly drawn) | inconclusive [activator, partial curve, poor fit]
29 | CN(C)S(=O)(=O)c1ccc(SCC(=O)Nc2cccc(S(=O)(=O)N3CCCC3)c2)nc1 | inactive
30 | COc1ccc(-n2c(C)cc(C(=O)COc3ccc(C)nc3[N+](=O)[O-])c2C)cc1 | active: 20.6 µM
31 | COCC1CCN(C(=O)c2cc(COc3ccccc3SC)on2)C1 (stereo not drawn) | inactive
32 | COC/C=C/C1=CC(=O)C[C@H](c2ccc3c(c2)OCO3)C1 | inconclusive [activator, single point]
33 | Cc1ccc2[nH]c3c(=O)n(CC(=O)N4CCN(C)CC4)ncc3c2c1 | inconclusive [activator, single point]
34 | Cc1ccc(C(=O)CSc2nnc(-c3cccnc3)n2N)cc1 | inconclusive [activator, partial curve, poor fit]
35 | N#Cc1nc(COc2ccccc2F)oc1NCCc1ccccc1 | active: 23.1 µM
36 | O=C(Nc1cccc(Cl)c1Cl)c1ccncc1 | inactive
37 | O=C(Nc1ccc(Cl)c(Cl)c1)Nc1nc(-c2ccccc2)cs1 | inconclusive [activator, partial curve, poor fit]
38 | CN(C)c1ccc(C(=O)/C=C/c2cccnc2)cc1 | inconclusive [activator, single point]
39 | CC(=O)c1cccc(Nc2cc(C)nc3c(C)cccc23)c1 | inconclusive [activator, single point]
40 | COc1ccc(/C=N/n2c(-c3ccco3)nc3ccccc3c2=O)cc1 | inactive
41 | COc1ccc(C)cc1Nc1n[n+](-c2ccccc2)c(-c2ccc(SC)cc2)s1 | inconclusive [activator, partial curve, poor fit]
42 | Cc1ccc(C(=O)C(NC(=O)c2ccco2)N2CCOCC2)cc1 (stereo not drawn) | inactive
43 | Cc1ccc(OCC(O)CN2CCC(Cc3ccccc3)CC2)c(C)c1 (stereo not drawn) | inconclusive [activator, single point]
